The values below come from PubChem BioAssay AID1963576 (National Center for Advancing Translational Sciences (NCATS), 2024).

Molecules are shown by their SMILES. Out of some 46,000 compounds screened, about 60 (0.1%) were called active. Inconclusive results (about 3%) are left out. The call rests on the fitted dose curve; in most records, active means well fitted inhibition curve with a large enough effect; inconclusive means small, poorly fitted or top-dose-only effect; inactive means no such curve, though single readings can be large or run the other way. Some of the results follow.

A short description of the assay: Primary qHTS assay for Inhibitors of ovarian cancer metastasis using an organotypic tumor microenvironment (TME) model. Further: nearly all actives have a fitted effect of over 65% in size.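 On activity change, negative = inhibition: plate controls were DMSO wells for no effect and tomatine positive control wells for full effect.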 Particulars: SKOV3ip1-GFP adhesion/invasion on 3D omental model, fluorescence; series mostly up to 45.8 µM; activity change, negative = inhibition: at the top concentration. Put shortly:
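Adhesion/invasion was scored as fixed GFP-labeled SKOV3ip1 cell counts (488/509 nm), normalized to DMSO and tomatine controls. Cancer cells in serum-free medium, with four compound doses (0.36-46 umol/L), sat 2 hr at RT then 16 hr at 37 C on a 48 hr fibroblast/mesothelial/ECM culture.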
On to `CN1CCN(C(=O)O[C@H]2c3nccnc3C(=O)N2c2ccc(Cl)cn2)CC1`, for which the “activity change, negative = inhibition” value was inactive: 16.5%.

In the case of `O=C(N[C@@H](COc1ccc2[nH]c(=O)[nH]c2c1)c1ccccc1)c1cccn(Cc2ccc(F)c(F)c2)c1=O`, the “activity change, negative = inhibition” value is inactive: -7.41%.

For the compound `O=C1CC[C@@]2(O)[C@H]3Cc4ccc(O)c5c4[C@@]2(CCN3CC2CC2)[C@H]1O5`, the “activity change, negative = inhibition” value is inactive: -13.6%.

With `C[C@@]12OC(=O)[C@]1([C@@H](O)[C@@H]1C=CCCC1)NC(=O)[C@H]2CCCl`, the “activity change, negative = inhibition” value is inactive: -22.6%.

Turning to `COc1ccc(-c2nn3c(=O)cc(CN4CCN(C(=O)COc5ccc(F)cc5)CC4)nc3s2)cc1`, the “activity change, negative = inhibition” value is inactive: -2.34%.

In the case of `O=C(Nc1ccc2c(c1)OCO2)c1cccn(Cc2ccc(F)cc2)c1=O`, the “activity change, negative = inhibition” value was inactive: -6.11%.

Take `O=c1cccc2n1CC1CNC[C@H]2C1`: the “activity change, negative = inhibition” value is inactive: 3.49%.

`CC(NC(C)(C)C)C(=O)c1cccc(Cl)c1` (stereo not drawn): the “activity change, negative = inhibition” value is inactive: 9.64%.

For `CCOc1ccc2nc(NC(=O)c3cccn(Cc4ccccc4C)c3=O)sc2c1`, the “activity change, negative = inhibition” value is inactive: 8.72%.

In the case of `CCC(=O)N1CC(=O)Nc2ccc(C)cc2C1c1ccc(F)cc1` (stereo not drawn), the “activity change, negative = inhibition” value was inactive: -3.03%.

Consider `Cc1cc(NC(=O)c2cccn(Cc3cccc([N+](=O)[O-])c3)c2=O)no1`, for which the “activity change, negative = inhibition” value was inactive: 16.3%.

Regarding `CN(C)[C@@H]1C(=O)C(C(N)=O)=C(O)[C@@]2(O)C(=O)C3=C(O)c4c(O)cccc4[C@@](C)(O)[C@H]3C[C@@H]12`, the “activity change, negative = inhibition” value is inactive: -4.41%.

For `Cc1ccccc1Cn1cccc(C(=O)Nc2cc(Cl)ccc2C#N)c1=O`, the result was inactive.

Turning to `Cn1c(=O)n(C)c2cc(CNCCc3ccccc3)ccc21`, the “activity change, negative = inhibition” value was inactive: 0.943%.

For the compound `Cc1cccc(CN2C(=O)CN=C(c3ccccc3)c3cc(Cl)ccc32)c1`, the call was inactive.

Regarding `O=C(O)C(=O)c1cn(Cc2ccccc2)c2ccc(-c3ccc(OC(F)(F)F)cc3)cc12`, the “activity change, negative = inhibition” value is inactive: -4.72%.

Turning to `CCCc1ccc(OCC(=O)Nc2ccc(Cl)cc2C(=O)c2ccccc2)cc1`, the outcome was inactive.

As for `COc1ccc(-c2nc(CN3C(=O)CN=C(c4ccccc4Cl)c4cc(Cl)ccc43)c(C)o2)cc1OC`, the “activity change, negative = inhibition” value was inactive: 1.43%.

`C[C@](O)(CS(=O)(=O)c1ccc(F)cc1)C(=O)Nc1ccc(C#N)c(C(F)(F)F)c1`: the “activity change, negative = inhibition” value was inactive: -12.4%.

Turning to `O=C(Cn1cc(C(=O)c2ccccc2)c2ccccc21)Nc1ccc(Br)cc1`, the “activity change, negative = inhibition” value was inactive: -7.62%.

Consider `COc1ccc(OCC(=O)N2CCN(CCc3ccccn3)CC2)cc1`, for which the “activity change, negative = inhibition” value was inactive: 4.33%.

As for `CC(C)c1ccc(NC(=O)CN2C(=O)CN=C(c3ccccc3)c3ccccc32)cc1`, the “activity change, negative = inhibition” value was inactive: -3.99%.

Consider `CCC(C(=O)Nc1ccccc1F)N1C(=O)CN=C(c2ccccc2)c2ccccc21` (stereo not drawn), for which the compound was classed as inactive.

Regarding `CCc1ccc(-n2nc(C)c3c2NC(=O)CSC3c2ccc(OC)cc2OC)cc1` (stereo not drawn), the “activity change, negative = inhibition” value was inactive: 1.11%.

Consider `COc1ccc(Cl)cc1NC(=O)c1sc2nc3c(cc2c1N)N1CCC3CC1`, for which the “activity change, negative = inhibition” value is inactive: -21.5%.

As to `CCNC(=O)CC1N=C(c2ccc(Cl)cc2)c2cc(OC)ccc2-n2c(C)nnc21` (stereo not drawn), the “activity change, negative = inhibition” value is inactive: 9.81%.

As to `N#Cc1ccccc1NC(=O)c1cccn(Cc2ccccc2)c1=O`, the “activity change, negative = inhibition” value was inactive: 2.87%.

Regarding `C[C@]12CC[C@@H]3c4ccc(OC(=O)N(CCCl)CCCl)cc4CC[C@H]3[C@@H]1CC[C@@H]2OP(=O)(O)O`, the “activity change, negative = inhibition” value was inactive: 3.73%.

For the compound `O=C(NCC1CCOCC1)c1cnc(Nc2ccc(Cl)cc2Cl)nc1C(F)(F)F`, the “activity change, negative = inhibition” value is inactive: 21%.

Take `Cc1ccc(-n2c(/C=C/c3ccccc3)nc3ccccc3c2=O)cc1Cl`: the “activity change, negative = inhibition” value was inactive: 8.2%.

On to `O=C1CC(c2ccccc2Br)c2c(c3ccccc3oc2=O)O1` (stereo not drawn), for which the “activity change, negative = inhibition” value was inactive: 1.05%.

For the compound `Cn1cc(C2=C(c3cn(C4CCN(Cc5ccccn5)CC4)c4ccccc34)C(=O)NC2=O)c2ccccc21`, the “activity change, negative = inhibition” value is inactive: 1.83%.

With `Cn1c(=O)n(C)c2cc(CNCCc3ccccc3F)ccc21`, the “activity change, negative = inhibition” value was inactive: 0.897%.

With `CC1(N2CCC(n3c([C@@H]4CCCNC4)nc4ccccc43)CC2)CCCCCCC1`, the “activity change, negative = inhibition” value was inactive: 6.06%.

In the case of `CC[C@H]1C=CC=CC[C@@H](C)[C@H](O)[C@@](C)(O)C(=O)[C@@H](C)[C@H](O)[C@@H](C)C(=O)[C@@H](C)[C@H](O)[C@@H](C)C=CC(=O)O[C@@H]2[C@@H](C)[C@H](CC1)O[C@]1(CC[C@H](C)[C@H](C[C@@H](C)O)O1)[C@H]2C`, the “activity change, negative = inhibition” value is inactive: -5.55%.

For the compound `COc1ccc(C)cc1NC(=O)c1cccn(Cc2ccccc2Cl)c1=O`, the “activity change, negative = inhibition” value is inactive: -8.24%.

As to `Cc1ccc(-n2c(/C=C/c3cc(Br)cs3)nc3ccccc3c2=O)cc1C`, the “activity change, negative = inhibition” value is inactive: 2.96%.

For the compound `C[C@@H]1O[C@@H](O[C@@H]2C=C3CC[C@@H]4[C@@H](CC[C@]5(C)[C@H](c6ccc(=O)oc6)CC[C@@]45O)[C@@]3(C)CC2)[C@H](O)[C@H](O)[C@H]1O`, the “activity change, negative = inhibition” value is inactive: -10.7%.

With `C#C[C@]1(O)C=C[C@@H]2[C@@H]3CCC4=CC(=O)CC[C@@H]4[C@H]3CC[C@@]21CC`, the “activity change, negative = inhibition” value is inactive: -4.28%.

Turning to `Cc1cccc(C)c1NC(=O)CN1CCCC1=O`, the “activity change, negative = inhibition” value was inactive: 3.3%.

In the case of `O=C(COc1ccccc1[N+](=O)[O-])N1CCN(CCc2ccncc2)CC1`, the call was inactive.

With `Cc1cccc(C)c1OCC(=O)Nc1ccc(Cl)cc1C(=O)c1ccccc1`, the “activity change, negative = inhibition” value was inactive: 7.76%.

As for `Cc1ccc(CNC(=O)CCCn2c(=O)c3sccc3n(CC(=O)Nc3c(C)cccc3C)c2=O)cc1`, the “activity change, negative = inhibition” value was inactive: -4.83%.

Regarding `Cc1nc(-c2ccc(-c3ccc(C(=O)N4CCc5cc6c(cc54)C4(CCN(C)CC4)CO6)cc3)c(C)c2)no1`, the “activity change, negative = inhibition” value is inactive: -4.37%.

`CC(C)c1cccc(C(C)C)c1O`: the “activity change, negative = inhibition” value is inactive: -13.9%.

As for `COc1ccc(NC(=O)CCc2nc(C3=CCN(Cc4cccc(C)c4)CC3)no2)c(OC)c1`, the result was inactive.

With `Cc1cc(OCC(=O)N2CCN(CCc3ccncc3)CC2)cc(C)c1Cl`, the “activity change, negative = inhibition” value was inactive: -7.12%.

Take `CN[C@@H]1Cc2cccc3[nH]c(=O)n(c23)C1`: the “activity change, negative = inhibition” value is inactive: -8.45%.

As for `COc1ccc(OC)c(CCNCc2c(C(=O)O)c(C)n(Cc3ccc(F)cc3Cl)c2C)c1`, the “activity change, negative = inhibition” value was inactive: -0.147%.

As for `Cc1ccc(Cn2cccc(C(=O)Nc3ccc(C)c(Cl)c3)c2=O)cc1`, the “activity change, negative = inhibition” value was inactive: -12.5%.

`O=[N+]([O-])c1ncc[nH]1`: the “activity change, negative = inhibition” value was inactive: -16.6%.

Take `COC[C@H]1OC(=O)c2coc3c2[C@@]1(C)C1=C(C3=O)[C@@H]2CC[C@H](O)[C@@]2(C)C[C@@H]1OC(C)=O`: the “activity change, negative = inhibition” value is inactive: 5.92%.

For `COc1ccc(C2CC(=O)Oc3c2c(=O)oc2ccccc32)c(OC)c1OC` (stereo not drawn), the “activity change, negative = inhibition” value was inactive: 2.29%.

Regarding `Cc1cccc(-n2c(/C=C\c3cccc(Br)c3)nc3ccccc3c2=O)c1`, the “activity change, negative = inhibition” value was inactive: -9.95%.

As to `COc1ccccc1CN1CCN(C(=O)COc2cccc(C)c2)CC1`, the “activity change, negative = inhibition” value is inactive: -2.01%.

On to `COc1ccc(NC(=O)CN2C(=O)CN=C(c3ccccc3)c3ccccc32)c(OC)c1`, for which the “activity change, negative = inhibition” value is inactive: -2.17%.

With `Cc1ccccc1-n1nc(C)c2c1NC(=O)CSC2c1ccccc1C(F)(F)F` (stereo not drawn), the “activity change, negative = inhibition” value is inactive: 3.66%.

With `C=CCON=C(C[C@H]1O[C@@H]2O[C@]3(C)CC[C@@H]4[C@H](C)CC[C@@H]([C@H]1C)[C@@]24OO3)[C@H]1O[C@@H]2O[C@]3(C)CC[C@H]4[C@H](C)CC[C@@H]([C@@H]1C)[C@@]24OO3`, the “activity change, negative = inhibition” value is inactive: -3.11%.
